Measurements as given in paper PMC4336329 (PLoS ONE, 2015).
Hit rate of the full screen: of about 310,000 compounds, about 14,000 (4.5%) showed an effect of 50% or more. The effect is printed as a negative number. The list shows a part of the results.

Molecular target: human ether-à-go-go-related gene (hERG) potassium channel (human, UniProt Q12809)
Experiment: primary screen, population patch clamp on CHO cells stably expressing hERG
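Further: peak tail current of the secondary pulse compared with the same well before compound.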

Sequence of human ether-à-go-go-related gene (hERG) potassium channel (Q12809 whole entry, looked up): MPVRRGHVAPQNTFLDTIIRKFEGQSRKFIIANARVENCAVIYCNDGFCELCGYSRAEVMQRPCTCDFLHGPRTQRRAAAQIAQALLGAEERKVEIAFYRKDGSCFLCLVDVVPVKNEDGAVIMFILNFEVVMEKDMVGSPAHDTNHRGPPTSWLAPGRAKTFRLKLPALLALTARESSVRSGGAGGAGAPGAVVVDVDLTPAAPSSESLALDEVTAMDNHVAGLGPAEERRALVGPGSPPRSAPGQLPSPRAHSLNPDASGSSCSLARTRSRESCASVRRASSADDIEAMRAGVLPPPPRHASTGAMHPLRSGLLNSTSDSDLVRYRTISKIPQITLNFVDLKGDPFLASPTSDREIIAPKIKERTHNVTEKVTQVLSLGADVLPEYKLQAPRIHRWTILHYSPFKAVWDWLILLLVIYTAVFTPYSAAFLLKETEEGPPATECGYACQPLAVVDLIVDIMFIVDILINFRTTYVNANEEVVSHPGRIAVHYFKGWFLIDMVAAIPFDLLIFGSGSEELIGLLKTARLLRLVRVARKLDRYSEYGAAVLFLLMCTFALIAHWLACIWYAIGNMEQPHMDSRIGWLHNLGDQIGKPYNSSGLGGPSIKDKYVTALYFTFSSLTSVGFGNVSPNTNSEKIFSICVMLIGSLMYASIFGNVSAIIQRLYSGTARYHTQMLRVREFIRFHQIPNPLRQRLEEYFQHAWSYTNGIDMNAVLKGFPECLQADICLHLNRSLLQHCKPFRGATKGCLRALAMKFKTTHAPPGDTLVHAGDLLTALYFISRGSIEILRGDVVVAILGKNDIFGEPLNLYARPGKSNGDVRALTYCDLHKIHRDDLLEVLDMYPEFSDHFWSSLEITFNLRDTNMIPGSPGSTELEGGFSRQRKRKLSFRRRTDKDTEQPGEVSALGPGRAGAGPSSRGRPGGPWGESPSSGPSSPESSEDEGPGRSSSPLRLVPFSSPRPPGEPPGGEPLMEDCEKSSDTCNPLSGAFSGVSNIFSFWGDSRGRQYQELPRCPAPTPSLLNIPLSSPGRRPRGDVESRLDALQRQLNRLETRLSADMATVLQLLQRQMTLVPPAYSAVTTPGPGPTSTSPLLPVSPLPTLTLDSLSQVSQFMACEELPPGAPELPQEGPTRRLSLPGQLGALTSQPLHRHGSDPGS

Compound	hERG current change (%, negative = inhibition) at 10uM
CC(C)[C@H]1CN=C2N(C[C@H](C)NC(=O)CCC3CCCCC3)[C@H](Cc3ccc(O)cc3)CN21	-59.7%
CCN(CC1COc2ccccc2O1)C(=S)NC1CC2CCC1C2 (stereo not drawn)	1.34%
O=C(CSc1nc2ccccc2[nH]1)N1CCN(S(=O)(=O)c2ccc(Cl)cc2)CC1	-19.8%
COc1cccc(/C=N/c2sc(Cc3ccccc3)c(C)c2C(N)=O)c1O	-4.7%
CCC(=NC1CC1)c1c(O)n(C2CCCCC2)c(=O)[nH]c1=O	-18.5%
Cc1cc2oc(=O)cc(CN3CCC(C)CC3)c2cc1C	-11.7%
Cc1ccc(NC(=O)C2CCN(S(=O)(=O)c3ccc4c(c3)NC(=O)C(C)S4)CC2)c(C)c1 (stereo not drawn)	-3.06%
CCN(CC)S(=O)(=O)c1ccc(Oc2ccccc2)cc1	-20.7%
Cc1cccc(NC(=O)c2ccc(OCC3CCCO3)cc2)c1C (stereo not drawn)	-2.52%
CC(C)NS(=O)(=O)c1ccc2c(c1)oc(=O)n2C	18%
COCCNC(=O)CN(Cc1ccc(OC)cc1)C(=O)CCC(=O)Nc1nccs1	2.7%
Cc1ccc(NS(=O)(=O)c2cccc(C(=O)N3CCCC(C)C3)c2)cc1 (stereo not drawn)	-28.6%
Cc1cc2nc(-c3ccccc3)cc(=O)n2[nH]1	-2.2%
NC(=O)c1ccc(NS(=O)(=O)c2ccc3ccccc3c2)cc1	6.83%
CCCCC(=O)Nc1ccccc1N1CCOCC1	6.55%
O=C(O)c1cnn2c(-c3ccccc3)ccnc12	2.34%
CSc1nsc(SCCN2C(=O)c3ccccc3C2=O)n1	-10.5%
CCOC(=O)c1nnn2c1nc(SCC(C)=O)c1ccccc12	2.57%
COc1ccc(-c2n[nH]c(C)c2-c2cnn(-c3ccccc3)c2)c(O)c1C	-5.82%
CCOc1ccc(NS(=O)(=O)c2cc(OCC(N)=O)c(C)cc2Cl)cc1	0.133%
COc1cc(OC)cc(C(=O)Nc2ccc(S(=O)(=O)Nc3ncccn3)cc2)c1	12.8%
S=C(NCCCc1ccccc1)Nc1ccccc1	12.1%
CC(=O)NCc1nnc2c3ccccc3c(-c3ccccc3)nn12	-31.9%

Compound	hERG current change (%, negative = inhibition) at 10uM
COc1cc(/C=C/C(=O)OCC(=O)Nc2cc(S(=O)(=O)N(C)C)ccc2Cl)ccc1O	-7.89%
CCOC(=O)c1c(NC(=O)CN2C(=O)NC3(CCCCC3C)C2=O)sc(C)c1CC (stereo not drawn)	1.68%
Cc1ccc(C(=O)NNC(=O)C2CCN(c3nccc(C)n3)CC2)cc1	10.1%
CC(=O)c1ccc(OCC(=O)NC2CCS(=O)(=O)C2)cc1 (stereo not drawn)	13.3%
C/C(=N\NC(=O)c1c(Cl)c(C)nn1C)c1cccc(NC(=O)C2CCCC2)c1	-0.542%
COc1ccc(-c2cccc(NC(=O)c3cccs3)c2)nn1	1.7%
COC(=O)c1cc(NC(=O)C2CC2)cc(C(=O)OC)c1	2.74%
Clc1ccc(C2=NN=C3COc4ccccc4N3C2)cc1	-25.3%
O=C(OC1CCOC1=O)c1cccc(S(=O)(=O)Nc2cccc(Cl)c2)c1 (stereo not drawn)	-1.86%
N#CC1=CN(Cc2ccccc2)C=C(/C=N/Nc2ccccc2)C1	-5.72%
CSc1ncccc1C(=O)NCC(c1cccs1)N1CCOCC1 (stereo not drawn)	-5.1%
O=C(Cn1c(O)c(/C=C2\C=Nc3ccccc32)sc1=O)Nc1ccc2c(c1)OCO2	5.87%
CC1(C)NC(=O)N(CC(O)CN(c2ccccc2)S(=O)(=O)c2ccccc2)C1=O (stereo not drawn)	-16.1%
O=C(NCC1CCCO1)c1ccc(NC(=O)C2C3C=CC(C3)C2C(=O)O)cc1 (stereo not drawn)	-1.71%
Cc1ccc(-c2cc(C(=O)O)c3sc(N4CCCCC4)nc3n2)cc1	26.6%
O=C(NC1CCCc2ccccc21)c1ccccc1Br (stereo not drawn)	-39.9%
CC(C(=O)Nc1ccc(S(=O)(=O)Nc2ncccn2)cc1)N1C(=O)c2ccccc2S1(=O)=O (stereo not drawn)	-0.997%
CC1=C(C(=O)OCc2ccccc2)C(c2ccccc2OS(=O)(=O)c2ccc(C)cc2)NC(=O)N1CCCC(=O)O (stereo not drawn)	-47.2%
C=CCNC(=O)c1onc(CSc2ccncc2)c1C(=O)NCC=C	-7.89%
COc1cc2cc(C(c3nnnn3Cc3ccc(F)cc3)N3CCCCCC3)c(=O)[nH]c2cc1OC (stereo not drawn)	-74%
Nc1ccc(C(=O)OCC(=O)NC2CCS(=O)(=O)C2)cc1[N+](=O)[O-] (stereo not drawn)	-3.78%
O=C1CC(N2CCc3ccccc32)C(=O)N1c1ccc(F)cc1 (stereo not drawn)	-5%
O=C(CN1C(=O)c2cccc3cccc(c23)C1=O)N1CCN(c2ccccn2)CC1	6.25%

Compound	hERG current change (%, negative = inhibition) at 10uM
COc1ccc(Cl)cc1NC(=O)CN(C)C(=O)c1ccc2n[nH]nc2c1	-13.8%
COc1ccc(C(=O)NCCSCc2cccc(Cl)c2)cc1OC	-6.13%
CCN(CC)c1ccc(NC(=O)CSc2nnc(N)s2)cc1C	2.78%
CC(C)(C)OC(=O)NCCC(=O)Oc1ccc2ccc(=O)oc2c1	-4.42%
O=C1CCC(/C=C/c2ccccc2)=NN1	11.1%
CCc1c(C)nc(N)nc1N1N=C1SC(C(C)=O)C(C)=O	27.8%
O=C(CSc1nnc(-c2ccccc2)o1)N1CCc2ccccc2C1	-2.21%
CCN(C(=O)CSc1n[nH]c(-c2cccs2)n1)C1CCS(=O)(=O)C1 (stereo not drawn)	12.2%
CCOC(=O)c1sc(NC(=O)CSc2nc3cccnc3n2C)nc1C	4.01%
CCOc1ccc(/C=C2/C(=O)NC(=O)N(CCc3ccc(F)cc3)C2=O)cc1	8.76%
CCCCC1=CC2=CC(=O)C(C)(OC(=O)c3cccs3)C(=O)C2=CO1 (stereo not drawn)	6.94%
COc1c(Cl)ccc(Cl)c1C(=O)OCC(=O)O	5.86%
CCC(O)C(C)(C)C (stereo not drawn)	5.99%
O=C(Nc1ccccc1C(F)(F)F)c1ccc(CN2CCC(Cc3ccccc3)CC2)cc1	-42.4%
CC(=O)Nc1cc2c(cc1NC(=O)Cn1nnc(-c3ccc(C)o3)n1)OCCO2	8.56%
COc1cc(S(=O)(=O)N(Cc2cccnc2)Cc2ccco2)ccc1-n1cnnn1	-52.3%
Cc1ccc(N2CC(C(=O)NCc3cccs3)CC2=O)cc1C (stereo not drawn)	-7.52%
COc1cc(-c2nnc(SCC(=O)OC3CCCCC3)o2)cc(OC)c1OC	5.1%
CCCCCNc1nc(N2CCCC2)c2c(c1C#N)CCN(C)C2	-72.8%
COC(=O)c1ccc(CN2CCCCC2)cc1	1.45%
CC(C)CN1CCN(Cc2cnc(-c3ccc(Cl)cc3)nc2)CC1CCO (stereo not drawn)	-67.2%
Cc1ccc(-c2noc(COC(=O)c3ccco3)n2)cc1	-13.3%
CC(c1nnc(SCC(=O)Nc2cccnc2Cl)n1-c1ccccc1)N(C)C (stereo not drawn)	5.26%

Compound	hERG current change (%, negative = inhibition) at 10uM
COc1ccccc1C(=O)Nc1ccc(-c2nnn(CC(=O)N3CCOCC3)n2)cc1	19%
COc1cccc(OC)c1CN1CCCC(C(=O)c2ccccc2SC)C1 (stereo not drawn)	-72.6%
CSc1ccccc1NC(=O)c1cccnc1	26.7%
C/C(=N\N(c1ccccc1)c1ccccc1)c1ccc(O)cc1	3.42%
O=C1CC(C(=O)O)c2ccccc2N1 (stereo not drawn)	-4.12%
CN(C)S(=O)(=O)c1ccc(C(=O)NCc2cccs2)cc1	5.55%
COP(=O)(OC)C(Nc1ccc([N+](=O)[O-])cc1)c1ccccc1 (stereo not drawn)	-36.1%
Cc1c(CCOC(=O)C23CC4CC(CC(C4)C2)C3)sc[n+]1Cc1ccccc1.[Cl-]	-8.89%
O=C(CN1CCN(c2ccccc2)CC1)NCc1ccc(F)cc1	-11%
CCOC(=O)C1C(=O)CC(C)(O)C(C(=O)OCC)C1c1ccc(SC)cc1 (stereo not drawn)	0.306%
CC(Sc1nc2ccccc2s1)C(=O)Nc1nnc(C(C)C)s1 (stereo not drawn)	-21.5%
CCOc1ccc(S(=O)(=O)N(C)c2ccc(OCC(=O)Nc3nc4ccccc4s3)cc2)cc1	13.9%
Cc1coc2c(C)c3oc(=O)c(CC(=O)N[C@@H](CC(C)C)C(=O)O)c(C)c3cc12	8.8%
O=C(NCCCN1CCCC1=O)Nc1ccc([N+](=O)[O-])cc1	-2%
Cl.c1ccc(-c2ccc(CNC3CC3)cc2)cc1	15.2%
Cc1ccc(S(=O)(=O)N2CCCC2C(=O)NC2CCCCC2)cc1 (stereo not drawn)	12.2%
CCNc1nc(NC(C)C)nc(OCCOC(=O)c2ccccc2)n1	-30.7%
N#Cc1c(-c2ccccc2F)cc(-c2cccnc2)nc1N	-5.89%
O=C(Nc1nncs1)c1cc(S(=O)(=O)N2CCOCC2)ccc1Cl	17.8%
COc1ccc(S(=O)(=O)N2CCN(CC(=O)Nc3ccccc3OC)CC2)cc1	-5.56%
C/C=C/COC(=O)c1[nH]c2c(c1C)C(=O)CC(c1ccco1)C2 (stereo not drawn)	0.369%
